Laboratory results published in the supplement of paper PMC11417369.
± gives the standard deviation of the averaged measurements. This is one part of the list.

These sequences were tested on PfAP2-LT AP2 domain (GST-tagged) (assay: gcPBM binding intensity (ln(normalized median fluorescence intensity)); higher = stronger DNA binding).
Summary of the method: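 GST-fused DNA-binding domains of P. falciparum, expressed in E. coli, were applied at about 25 μg on average for 1 h to an Agilent 4 × 180k array of primer-extended double-stranded 36-bp intergenic genomic probes and negative controls. Binding intensity is the highest Masliner-normalised natural-log median intensity across replicate spots of either probe orientation, measured with Alexa488 anti-GST antibody and a 488 nm scan.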

Row | Sequence | gcPBM binding intensity (ln)
1 | AAGGATCACAGACAAACACACATATATATATATATA [CACACA_site4469] | 10.1 ± 0.16
2 | TTTTGACCATATCTGTTGCACTTTTGTGCTATTCGA | 8.88 ± 0.61
3 | CATTATGTCGTAAATACACACATACATATACATACA [CACACA_site8383] | 9.12 ± 0.26
4 | AAATAATTTGTTGACACACACACACCCATACAGATA [CACACA_site5291] | 9.77 ± 0.14
5 | TAAATTTTTTCCTCCTGTACTTATTATATTTTTTTG [XGTACX_site1572] | 8.73 ± 0.51
6 | ATTAATTCGTTTTGTACACACATAATGAGTAATTTA [CACACA_site7118] | 8.94 ± 0.4
7 | ATGTGTGTATACATCAATTATATATATATTATGTAT [GTGCAC_negctrl_site720] | 9.19 ± 0.3
8 | AAAATAAAAATAACAACACACATATACTATAATATT [CACACA_site2769] | 9.14 ± 0.4
9 | TATGTTAAAAAAAAATGTACATATGTTTTTGTTAAA [XGTACX_site4754] | 8.39 ± 0.55
10 | GACCCATTATTTTATTGTACTTTTATTATAACGTGA [XGTACX_site156] | 8.86 ± 0.41
11 | AAATGAATAATGATATACAAACAAATCATGTGTTAA [XGTACX_negctrl_site150] | 8.81 ± 0.48
12 | TTTCCCCCATATAATGAACACACACCCTCCTCATAA [CACACA_site8110] | 9.84 ± 0.41
13 | ATACATTCAAAATATACACACATATATATATAATAT [CACACA_site950] | 9.06 ± 0.3
14 | ATTTTTTTTAATTTGTACAAATTTTGTTCACAATTT [CACACA_negctrl_site1301] | 8.91 ± 0.52
15 | TACCATGTTCAAATTACACACATATAATCTAATATA [CACACA_site2008] | 8.81 ± 0.32
16 | TTTATTATTATATTATTTTAATTTTTCTTTAGTACA [GTGCAC_negctrl_site392] | 8.38 ± 0.53
17 | CATTTCATTTCTTAATGTACTTTATTCCACCACATA [XGTACX_site5943] | 8.81 ± 0.52
18 | ATAAATATATGAAGTTGTACAAATAATTAACATTAT [XGTACX_site5740] | 9.08 ± 0.49
19 | AAATTAAATAAATTTACACACTAAAAATTACATATA [CACACA_site1054] | 8.55 ± 0.45

Row | Sequence | gcPBM binding intensity (ln)
20 | TTATATATGTATTAATGTACATAGTTGAGAAAGGTA [XGTACX_site1511] | 8.78 ± 0.34
21 | AAAGGGACATATATATCACACACAAAAATTAGTCCC [CACACA_site8897] | 9.39 ± 0.44
22 | TAATATCTACATATATGTACATATATATATATATAT [XGTACX_site7979] | 9.48 ± 0.028
23 | GGAAGCTAATTACACACATGCATATTTTTTTTTCAA [TGCATGCA_site548] | 9.04 ± 0.36
24 | ATAATATAGAACAATACATGCAAATGGCTTAAATTT [TGCATGCA_site521] | 8.94 ± 0.47
25 | ATGGGACAGATATATACACACATATAAATATAAATA [CACACA_site6684] | 9.2 ± 0.46
26 | TAAATATAATAAGAACAAACAAAATAGTACAATATA [TGCATGCA_negctrl_site364] | 8.99 ± 0.42
27 | TTTTTTTTAAATTGTGGTACACAAATTCATATATAT [XGTACX_site8944] | 8.54 ± 0.44
28 | TGTTAACTTAAAAAAATACCTACGGAAAAATCACAA [TGCATGCA_negctrl_site433] | 8.58 ± 0.42
29 | GTCATATTATTATTACGTACTTAAATATATAATATA [XGTACX_site3405] | 8.73 ± 0.38
30 | AAAAGAAAAAAAAGTACACACATGTATATTAATCGT [CACACA_site2528] | 9.37 ± 0.4
31 | TATGTGTATAATAAAAGTACATATATTATTATATAA [XGTACX_site8556] | 8.68 ± 0.42
32 | TATTTCGTAATTTAATAATATACAAGAAATATATAT [XGTACX_negctrl_site143] | 8.38 ± 0.36
33 | TAAAATAATAAAACAACACACAAATAGTTAAAATAG [CACACA_site1680] | 9.07 ± 0.45
34 | ATTGACGTCATATAAACATGCACATTTTGGATGTTT [TGCATGCA_site985] | 8.86 ± 0.36
35 | CATATAATAAAAAATGTACACACATAAGAAAATTTA [CACACA_site8943] | 9 ± 0.48
36 | AATAAATAAAAAATTACACACATATTTATAAATATA [CACACA_site7584] | 8.82 ± 0.49
37 | AAGATAAACTTTTTTAATTAATTTAATTTTTTTTTT [GTGCAC_negctrl_site386] | 8.31 ± 0.64
38 | CACAAAAATAAATATAAACACACAATAAATAAATAA [CACACA_site8197] | 9.05 ± 0.47

Row | Sequence | gcPBM binding intensity (ln)
39 | TAAAATAAGTTAAAAAGTACATAATTATAATAAATA [XGTACX_site8108] | 8.6 ± 0.52
40 | TTTGTTTTTATTTACACATGCAAAAAAAAAAAAAAA [TGCATGCA_site655] | 8.34 ± 0.3
41 | TTATAATAGTTAATATGTACATATTTAATAAATAAT [XGTACX_site3183] | 8.53 ± 0.35
42 | TACAAAATACAAAAATGTACATAAAAATTTATAAAA [XGTACX_site6861] | 8.82 ± 0.49
43 | TACAGATACGGACACACACACACACCCAGACAAAAA [CACACA_site4432] | 10.2 ± 0.46
44 | ATATTAAAATATAATCGTACAATTAAATTTTTTTTT [XGTACX_site2739] | 8.33 ± 0.49
45 | ATATAGAATATATTAACATGCAATAAGTAAAGGGGG [TGCATGCA_site1022] | 9.67 ± 0.13
46 | CACTTCATAAAAATTGCACACATATAATAATGTACA [CACACA_site8692] | 8.98 ± 0.33
47 | ACAATGAAATATTCATGTACATATAAATAATAGTGT [XGTACX_site3762] | 8.98 ± 0.38
48 | TCATATAATCAAATATGTACATATTTTCAATTGAAT [XGTACX_site6831] | 8.75 ± 0.38
49 | ATATAATTTGATGGTTAACACACATATATATTATAT [CACACA_site8775] | 9.08 ± 0.33
50 | TTATTTATTTTTTATACACACAATTATCTTTTTAAG [CACACA_site6162] | 8.81 ± 0.51
51 | ATATTTATTTAATGAACACACGATATATTATTTTAT [CACACA_site1602] | 8.73 ± 0.34
52 | TAAAAACATTTAAATTGTACGGAAATAAAAATTTTT [XGTACX_site8225] | 8.45 ± 0.42
53 | TAAATCATTTATTAAGTGCAATATTCTTTTTGAGAT | 8.44 ± 0.38
54 | TGTTTTCCCTTTAGTGTGCACGTATTTCTATTAACA [GTGCAC_site9847] | 9.17 ± 0.4
55 | ATATAAATATTAAATACACACATTTTTGATTAGGTT [CACACA_site7461] | 8.9 ± 0.4
56 | AAAATGATAATACCAAGTACACATATGAAAAATACA [XGTACX_site6763] | 9.15 ± 0.5
